In the RNAGym collection of RNA variant scans (doi:10.1093/nar/gkz1192) one finds self-cleavage data, which are given here for 34 variants.

To fix the notation:
B1: CPEB3 Ribozyme (parent)
chain: UAACAGGGGGCCACAGCAGAAGCGUUCACGUCGCAGCCCCUGUCAGAUUCUGGUGAAUCUGCGAAUUCUGCUGUAUAUCUC

The source gives no read counts; variants with many changes may rest on few reads.

The data set covers variants of B1. In words: self-cleavage, relative activity (ratio to wild type); higher = more cleavage; in vitro, sequencing. A digest of the protocol:
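After error-prone PCR and barcoding, CPEB3 ribozyme mutant libraries were transcribed with T7 RNA polymerase at 37°C for 5 hours, then given 15 min with DNase I before an EDTA stop, and they cleaved during both steps. Reverse transcription with template switching preceded Illumina sequencing. Relative activity divides a variant's cleaved/total read fraction by the unmutated ribozyme's. At least 5 reads were required per variant, and three batches were averaged.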
Consider UAACAGGGGGCCACAGCAGAAGCGCCCACGUCGCAGCCCCUGUCGGGUUCUGGUGAAUCUGCGAAUUCUGCGGUAUAUCCC, for which the self-cleavage is 0.19.

For the variant UAACAGGGGGCCACAGCAGAAGCGCUCACGCCGCAGCCCCUGUCAGAUUCUGGUUAAUCUGCGAAUUCCGCCGUAUCUCCC, the self-cleavage stood at 0.05.

With UAACAGGGGGCCACAGCAGAAGCGCUCACGCCGCAGCCCCAGUCAGAUUCUGGUGAAUCUGCGAAUUCUGCUGUAAAUCUC, the self-cleavage worked out at 0.18.

Take UAACAGGGGGCCACAGCAGAAGCGCUCACGCCGCAGCCCCUAUCAGAUUCAGGUGAAUCUGCGAAUUCUGCUGUAUAUCUC: the self-cleavage stood at 0.09.

Take UAACAGGGGGCCACAGCAGAAGCGCCCACGUCGCAGCCCCUGUCAGAUCCUGGCGAAUCUGCGAAUUCUGCUGUAUAUCUC: the self-cleavage was found to be 0.19.

As for UAACAGGGGGCCACAGCAGAAGCGCUCACGCAGCAGCCCCUGCCAGAUUCUGGUGAAUCUGCGAAUUCUGCGGUACAUCUC, the self-cleavage was 0.05.

For UAACAGGGGGCCACAGCAGAAGCGCUCACGCCGCAGCCCCUGUCAGAUCCUGGUGAACCUGCGAAUUCUGCCGUACAUCUC, the self-cleavage was determined as 0.

UAACAGGGGGCCACAGCAGAAGCGCUCACGACGCAGCCCCUGUCAGAUUCUGGCGAAUCUGCGAAUUCUGCUGUAUAUCUC: the self-cleavage is 0.12.

Regarding UAACAGGGGGCCACAGCAGAAGCGCCCACGUCGCAGCCCCUGCCAGAUUCUGGUGAAUCUGCGAAUUCUGCUGUAUAUCUC, the self-cleavage was 0.18.

With UAACAGGGGGCCACAGCAGAAGCGCUCACGACGCAGCCCCUGUCAGGUUCUGGUGAAUCUGCGAAUUCUGCUGUAUAUCUC, the self-cleavage worked out at 0.2.

In the case of UAACAGGGGGCCACAGCAGAAGCGCUCACGACGCAGCCCUUGUCAGAUUCUGGUGAAUCUGCGAAUUCAGCUGUAUAUCUC, the self-cleavage came out at 0.44.

Regarding UAACAGGGGGCCACAGCAGAAGCGCCCACGUCACAGCCCCUGUCAGAUUCUGGUGAAUCUGCGAAUUCAGCUGUAUAUCUC, the self-cleavage was 0.

As to UAACAGGGGGCCACAGCAGAAGCGCCCACGCCGCAGCCCCUGUCAGAUUCUGGUGAAUCAGCGAAUUCUGCCGUAUAUCUC, the self-cleavage was determined as 0.18.

As to UAACAGGGGGCCACAGCAGAAGCGCCCACGUCGCAGCCCCUGUCGGAUUCCGGUGAAUCUGCGAAUUCUGCUGUAUAUCUC, the self-cleavage was 0.37.

UAACAGGGGGCCACAGCAGAAGCGCUCACGCCGCAGCCCCUGUCAGAUUCUGGUGAAUCUGCGAAUACUGCUGUAUAUCUC: the self-cleavage came to 0.15.

Take UAACAGGGGGCCACAGCAGAAGCGCUCACGCCGCAGCCCCUGUCUGAUUCUGGUGAAUCUGCGAAUUCUGCUGUAUAUCUC: the self-cleavage was found to be 0.23.

On to UAACAGGGGGCCACAGCAGAAGCGCCCACGUCGCAGCCCCAGUCAGAUUCUGGUGAAUCUGCGAAUUCCGCUGUAUAUCUC, for which the self-cleavage is 0.06.

In the case of UAACAGGGGGCCACAGCAGAAGCGCCCACGUCGCAGCCCCAGUCAGAUUCUGGUGUAUCCGCGGAUUCUGCUGUAUAUCUC, the self-cleavage was found to be 0.48.

UAACAGGGGGCCACAGCAGAAGCGCCCACGCCGCAGCCCCUGUCAGAUUCGGGUGAAUCUGCGAAUUCUGCUGUAUAUCUC: the self-cleavage came to 0.27.

Turning to UAACAGGGGGCCACAGCAGAAGCGCUCACGUCGCAGCCCCAGCCAGAUUCUGGUGAAUCUGCGUAUUCUGCUGUAUAUCUC, the self-cleavage came out at 0.13.

UAACAGGGGGCCACAGCAGAAGCGCUCACGCCGCAGCCCCCGUCGGAUUCUGGUGAAUCUGCGAAUUCUGCUGUAUAUCUC: the self-cleavage was 0.06.

Regarding UAACAGGGGGCCACAGCAGAAGCGCUCACGUCGCAGCCCCAGUCAGAUUCUGGUGAAUCUGCGAACUCUGCUGUAUAUCUC, the self-cleavage was determined as 0.27.

As for UAACAGGGGGCCACAGCAGAAGCGCUCACGACGCAGCCCCUGUCAGAUUCUGGUGAAUCUGCGAAUUCAGCCGUAUAUCUC, the self-cleavage worked out at 0.04.

Turning to UAACAGGGGGCCACAGCAGAAGCGCUCACGACGCAGCCCCUGUCAGAUUCUGGUGAAUCUGCGUAUUCUGCUGUAUAUCUC, the self-cleavage was found to be 0.2.

Turning to UAACAGGGGGCCACAGCAGAAGCGCUCACGCCGCGGCCCCUGUCAGAUUCUGGUGAAUCUGCGAAUUCAGCUGUAUAUCUC, the self-cleavage was 0.15.

Consider UAACAGGGGGCCACAGCAGAAGCGCUCACGUCGCAGCCCCAGUCAGAUUCCGGUGAGUCUGCGAAUUCUGCUGUAUAUCCC, for which the self-cleavage was found to be 0.

UAACAGGGGGCCACAGCAGAAGCGCUCACGUCGCAGCCCCAGUCAGAUUCUGGUGAAUCUGCGAAUUCUGCUGUAAGUCUC: the self-cleavage amounted to 0.15.

For the variant UAACAGGGGGCCACAGCAGAAGCGCUCACGACGCAGCCCCUGUCAGAUUCAGGUGAAUCUGCGAAUUCUGCUGUAUAUCUC, the self-cleavage is 0.28.

Consider UAACAGGGGGCCACAGCAGAAGCGCUCACGUCGCAGCCCCAGUCAGACUCCGGUGAAUCUGCGUAUUCUGCUGUAUAUCUC, for which the self-cleavage turned out to be 0.15.

UAACAGGGGGCCACAGCAGAAGCGCCCACGUCGCAGCCCCUGACAGAUUCUGGUGAAUCUUCGAAUUCUGCUGUAUACCUC: the self-cleavage came to 0.16.

Regarding UAACAGGGGGCCACAGCAGAAGCGCCCACGUCGCAGCCCCCGUCUGAUUCUGGUGAAUCUGCGAACUCUGCUGUAUAUCCC, the self-cleavage stood at 0.09.

Take UAACAGGGGGCCACAGCAGAAGCGCUCACGCCGCAGCCCCUGUCAGAUUCUGGUGAAUCUGCGAGUUCUGCUGUAUACCUC: the self-cleavage is 0.14.

UAACAGGGGGCCACAGCAGAAGCGCCCACGUCGCAGCCCCUGUCAGAUUCUGGUGAAUCCGCGAAUUCUACUGUAUAUCUC: the self-cleavage came to 0.05.

Take UAACAGGGGGCCACAGCAGAAGCGCCCACGUCGCAGCCCCUGUCAGAUUCUGGUGAAUCAGCGAUUUCUGCUGUAUAUCUC: the self-cleavage stood at 0.11.
